Test results: the supplement of paper PMC3334620
Over roughly 33,000 sequences, “E-score (-0.5 to 0.5)” has its median near -0.012; the highest 2% begin near 0.29. Some of the results follow.

Target: T1, Ybr033w (UniProt P38073)
T1 sequence: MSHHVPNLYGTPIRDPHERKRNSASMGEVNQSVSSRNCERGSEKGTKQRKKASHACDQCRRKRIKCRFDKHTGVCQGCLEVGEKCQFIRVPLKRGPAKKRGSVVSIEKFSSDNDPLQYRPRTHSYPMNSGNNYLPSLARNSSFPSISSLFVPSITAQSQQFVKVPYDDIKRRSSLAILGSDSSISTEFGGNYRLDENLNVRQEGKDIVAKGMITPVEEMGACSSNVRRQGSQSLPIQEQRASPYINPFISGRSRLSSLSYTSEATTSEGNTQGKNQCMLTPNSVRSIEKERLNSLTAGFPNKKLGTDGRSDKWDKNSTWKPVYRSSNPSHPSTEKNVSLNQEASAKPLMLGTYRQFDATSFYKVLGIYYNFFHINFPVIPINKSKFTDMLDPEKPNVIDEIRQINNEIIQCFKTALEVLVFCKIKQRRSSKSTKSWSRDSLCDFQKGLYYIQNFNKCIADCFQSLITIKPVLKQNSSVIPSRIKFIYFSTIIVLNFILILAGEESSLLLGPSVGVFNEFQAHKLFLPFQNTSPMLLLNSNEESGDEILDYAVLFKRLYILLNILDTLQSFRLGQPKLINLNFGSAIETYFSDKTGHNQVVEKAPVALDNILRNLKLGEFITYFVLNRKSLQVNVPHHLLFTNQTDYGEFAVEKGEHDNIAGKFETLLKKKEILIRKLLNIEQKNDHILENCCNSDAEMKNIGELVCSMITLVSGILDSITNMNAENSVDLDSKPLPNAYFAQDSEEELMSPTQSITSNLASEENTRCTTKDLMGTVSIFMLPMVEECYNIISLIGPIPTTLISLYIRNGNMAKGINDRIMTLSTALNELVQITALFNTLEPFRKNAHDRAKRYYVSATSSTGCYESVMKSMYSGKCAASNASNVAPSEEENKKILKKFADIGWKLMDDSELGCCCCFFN
Test: PBM E-score (8-mer binding enrichment) (E-score (-0.5 to 0.5)); higher = stronger / more preferred TF binding; most listed sequences are background and not binding sites
Conditions: protein concentration: 200 nM; construct: GST-full length
Method in brief: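 Full-length yeast transcription factors or their DNA-binding domains, GST-tagged and expressed with PURExpress, were applied at about 100-200 nM to universal all-10-mer Agilent arrays. These arrays had been made double-stranded by primer extension on fresh or once-stripped slides. Detection used fluorescent anti-GST, normalisation used masliner, and E-scores for ungapped eight-base words pooled with reverse complements came from the Universal PBM Analysis Suite.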

| Sequence | PBM E-score |
| --- | --- |
| ATTCTATA | 0.207 |
| ATACGCTG | -0.0162 |
| GGACGAGA | -0.2 |
| CTAAGGTC | -0.148 |
| CATGGGCG | -0.0951 |
| CTACAAGC | -0.0775 |
| ACAAAATG | 0.259 |
| CTCGTTCC | -0.158 |
| GGTAGCGA | 0.0182 |
| ATCATGTA | 0.173 |
| GATACCGC | -0.0911 |
| ATTCGTAA | 0.222 |
| CGAGACCA | -0.0425 |
| CGTCACAA | -0.0784 |
| CAGTTAGA | 0.0268 |
| AAGAACTC | 0.167 |
| GCCTGAGA | -0.128 |
| GCAAGCAC | -0.186 |
| TATACACA | 0.249 |
| ATGTCATG | 0.0437 |
| ATGACACA | 0.167 |
| AATTGATA | 0.255 |

| Sequence | PBM E-score |
| --- | --- |
| CTTCCTCA | -0.172 |
| CCCCTCTC | -0.288 |
| ATGATCGC | -0.0782 |
| AGCGGGAA | 0.0835 |
| AATTGACG | -0.0634 |
| CGGATACA | 0.0961 |
| CCTTAACC | 0.00326 |
| CCAGAGCA | -0.0441 |
| CATGGCCA | -0.223 |
| GATTAGGC | -0.0308 |
| ACGATTAC | -0.03 |
| CAGTACCA | 0.0107 |
| AGATCCTG | -0.0115 |
| CAGTGGAA | -0.0743 |
| GTTACGCA | -0.125 |
| CCGCATCA | -0.0372 |
| CTATACGC | 0.00539 |
| CTGCTTCC | -0.15 |
| AGAAGTTC | 0.0165 |
| CAGTCCCA | -0.248 |
| AGCCTGGG | -0.157 |
| CAACCTAG | -0.0189 |

| Sequence | PBM E-score |
| --- | --- |
| AATGCTCC | -0.00557 |
| ATAATGGC | 0.0328 |
| GTCGAAAA | 0.122 |
| ATCCGGGG | 0.181 |
| TAAAACTA | 0.195 |
| AATTAACA | 0.295 |
| TGGCGACA | -0.039 |
| CACTGCCA | 0.0567 |
| AAGGTGTA | 0.104 |
| ACTGGCTG | -0.182 |
| ACAACTCC | -0.0224 |
| GCGACTAC | -0.114 |
| CCATGCAA | 0.13 |
| AAAGCATT | 0.0559 |
| AACCCAGT | -0.102 |
| CGATCTAA | 0.0946 |
| GGGGGACC | -0.384 |
| CAAATCCG | 0.0419 |
| CAATGGTC | 0.169 |
| TCAGTGCA | -0.0189 |
| AAAGGTTC | 0.0654 |
| AGAATACG | 0.0732 |

| Sequence | PBM E-score |
| --- | --- |
| CACAACAG | 0.0436 |
| CTTGGTCC | -0.1 |
| AAGGGAAG | 0.0133 |
| AACCGGGA | -0.132 |
| CAGCAGGA | -0.079 |
| GAACACAC | 0.058 |
| ATCGAGCC | 0.0208 |
| CGGCCCCA | -0.253 |
| GCTTAACA | 0.0687 |
| CATGCATA | 0.0541 |
| TGAAGGCA | 0.00214 |
| CTCACATA | -0.115 |
| TAGTGGAA | -0.0197 |
| TCGGTGCA | -0.103 |
| CCGGCAGA | -0.144 |
| CGGCGATC | -0.113 |
| GCGCCGGA | -0.11 |
| ACGCTTAT | -0.105 |
| GACCAGGC | -0.164 |
| AGAGACAG | -0.067 |
| GTGCAGAA | 0.00483 |
| AGATTAGC | -0.0299 |

| Sequence | PBM E-score |
| --- | --- |
| CTAGGATC | -0.146 |
| ATTTGGAA | 0.169 |
| TAATTCCA | 0.257 |
| CTTGCGAC | -0.204 |
| AAGGTCAA | -0.0287 |
| AACTCCAC | 0.111 |
| GCAGAGCA | -0.16 |
| ATAGGGTA | -0.0147 |
| GAGTCCTA | 0.0305 |
| AGAATGAT | 0.167 |
| CAATAGTA | 0.168 |
| AAGTACTC | -0.0708 |
| GTTGTCCA | 0.00858 |
| GTTCGTAA | 0.0833 |
| AAATCCAG | 0.218 |
| AGCTGTGA | 0.00067 |
| CTTTAGTA | 0.0159 |
| TAGGTATA | 0.169 |
| CCGTATTA | 0.13 |
| GAATGGAC | -0.0608 |
| AAATATGC | 0.237 |
| CCAACCGC | 0.0131 |
